This assay has as its target GTPase KRas (Homo sapiens) (UniProt P01116). The assay can be described thus: Covalent labelling of cysteine mutants by fragments, read by mass spectrometry (AID 2202238). Further details: protein at 5 µM with 500 µM competing thiol for 1.5 h. The following applies: KRAS G12D cysteine mutants, disulfide tethering, MALDI-TOF labeling, stronger effect = higher value, fragment at 500 µM.

[1] abbreviates: measured here: G60C mutant labeling.
[2] abbreviates: measured here: G75C mutant labeling.
[3] abbreviates: measured here: H94C mutant labeling.
[4] abbreviates: measured here: I36C mutant labeling.
Where [5] appears, read: measured here: L120C mutant labeling.
Setting [6] is: measured here: M67C mutant labeling.
Where [7] appears, read: measured here: M72C mutant labeling.
Setting [8] is: measured here: N26C mutant labeling.
Setting [9] is: measured here: N86C mutant labeling.
Setting [10] is: measured here: P121C mutant labeling.
The mark [11] stands for this setting: measured here: S122C mutant labeling.
Where [12] appears, read: measured here: S136C mutant labeling.

SMILES strings stand for the structures. The list shows a part of the results. The main result of the screen is listed elsewhere. These columns were measured beside it and carry no call.

Sequence of UniProt P01116 (P01116 whole entry, looked up, the tested form may be a part): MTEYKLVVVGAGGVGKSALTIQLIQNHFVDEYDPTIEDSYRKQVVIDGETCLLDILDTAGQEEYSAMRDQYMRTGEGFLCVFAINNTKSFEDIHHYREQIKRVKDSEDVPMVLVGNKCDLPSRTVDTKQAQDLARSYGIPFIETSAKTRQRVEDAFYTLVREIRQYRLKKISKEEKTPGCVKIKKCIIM

With `Cc1ncc(Cc2cccc(C(=O)NCCS)c2)s1`, the percent labeling runs as follows: under setting [1], 37%; under setting [2], 18.5%; under setting [3], 28.6%; under setting [4], 18.2%; under setting [5], 27%; under setting [6], 19.6%. The percent labeling came to 48.5% under setting [7]; 41% under setting [8]; 18.1% under setting [9]; 19.3% under setting [10]; 16% under setting [11]; 30% under setting [12].
As for `O=C(NCCS)C1COc2ccc(O)cc2O1` (stereo not drawn), the percent labeling came out at 48.1% under setting [1]; 16.3% under setting [2]; 32% under setting [3]; 28.7% under setting [4]; 37.7% under setting [5]; 34.6% under setting [6]. Besides, the percent labeling by setting is: under setting [7], 36.1%; under setting [8], 41.4%; under setting [9], 33.2%; under setting [10], 28.7%; under setting [11], 31.6%; under setting [12], 55.2%.
Regarding `O=C(CC1(N2CCOCC2)CCCC1)NCCS`, the percent labeling runs as follows: under setting [1], 20.5%; under setting [2], 8%; under setting [3], 26.3%; under setting [4], 15.4%; under setting [5], 19.6%; under setting [6], 24.8%. Also, the percent labeling came out at 14.9% under setting [7]; 20.9% under setting [8]; 18.6% under setting [9]; 22% under setting [10]; 21% under setting [11]; 27.6% under setting [12].
`O=C(CCS)Nc1ccc2nc(C(F)F)[nH]c2c1` gave a percent labeling under setting [2] of 14.3%; a percent labeling under setting [3] of 32.3%; a percent labeling under setting [4] of 33.5%; a percent labeling under setting [5] of 32.5%; a percent labeling under setting [6] of 31.9%; a percent labeling under setting [7] of 32.5%. Further, the percent labeling by setting is: under setting [9], 18.9%; under setting [10], 30.3%; under setting [11], 28%; under setting [12], 48.9%.
Regarding `Cn1ccnc1[C@@H]1OCCC[C@H]1C(=O)NCCS`, the percent labeling was 22.2% under setting [1]; 8.2% under setting [2]; 31.4% under setting [3]; 18.7% under setting [4]; 29.9% under setting [5]; 25.2% under setting [6]. Further, the percent labeling reads like this: under setting [7], 8.5%; under setting [8], 26.8%; under setting [9], 21.1%; under setting [10], 32.3%; under setting [11], 22.2%; under setting [12], 37.3%.
For the compound `O=C(NCCS)C1(C(F)(F)F)CCOCC1`, the percent labeling reads like this: under setting [1], 30.8%; under setting [2], 10.5%; under setting [3], 25.7%; under setting [4], 23.5%; under setting [5], 27.7%; under setting [6], 24.5%. The percent labeling came out at 23.2% under setting [7]; 31.2% under setting [8]; 37.3% under setting [9]; 27% under setting [10]; 30.8% under setting [11]; 34.7% under setting [12].
Turning to `CO[C@H]1CCN(Cc2nc(C(=O)NCCS)co2)C1`, the percent labeling reads like this: under setting [1], 19.2%; under setting [2], 9.2%; under setting [3], 27.5%; under setting [4], 21.8%; under setting [5], 35.3%; under setting [6], 25%. Moreover, the percent labeling under setting [7] is 13.3%; the percent labeling under setting [8] was found to be 32.2%; the percent labeling under setting [9] worked out at 22.7%; the percent labeling under setting [10] worked out at 23.9%; the percent labeling under setting [11] was 25.5%; the percent labeling under setting [12] was found to be 33.5%.
Consider `Cc1sc(NC(=O)CCS)nc1-c1ccc2c(c1)CCC(=O)N2`, for which the percent labeling runs as follows: under setting [2], 15.8%; under setting [3], 14.5%; under setting [4], 15.2%; under setting [5], 8.6%; under setting [6], 11.4%; under setting [7], 52%. Besides, the percent labeling runs as follows: under setting [9], 11.3%; under setting [10], 9.4%; under setting [11], 2.8%; under setting [12], 22%.
For `Cc1nnc(CN(C)CC(=O)NCCS)n1C`, the percent labeling stood at 8.2% under setting [1]; 0% under setting [2]; 13.3% under setting [3]; 10.7% under setting [4]; 10.9% under setting [5]; 16.7% under setting [6]. In addition, the percent labeling came to 0% under setting [7]; 16.1% under setting [8]; 7.2% under setting [9]; 14.4% under setting [10]; 16.9% under setting [11]; 21.4% under setting [12].
Turning to `O=C(CCS)NCc1nc(-c2nn[nH]n2)cs1`, the percent labeling under setting [2] amounted to 14.6%; the percent labeling under setting [3] amounted to 25.5%; the percent labeling under setting [4] came to 28.9%; the percent labeling under setting [5] was determined as 34.6%; the percent labeling under setting [6] was determined as 34%; the percent labeling under setting [7] is 15.7%. In addition, the percent labeling is 32.9% under setting [9], 35.4% under setting [10], 37.7% under setting [11] and 40.9% under setting [12].
In turn, `O=C(CCS)Nc1cnc2c(c1)COCC2` had a percent labeling under setting [2] of 14.5%; a percent labeling under setting [3] of 23.8%; a percent labeling under setting [4] of 40.5%; a percent labeling under setting [5] of 24.7%; a percent labeling under setting [6] of 34.4%; a percent labeling under setting [7] of 36.2%. Besides, the percent labeling under setting [9] turned out to be 27.1%, the percent labeling under setting [10] is 28.6%, the percent labeling under setting [11] amounted to 26.9% and the percent labeling under setting [12] turned out to be 52.4%.
`CC(C)Cn1ccc2c(C(=O)NCCS)cccc21`: the percent labeling worked out at 18.7% under setting [1]; 11.1% under setting [2]; 14.3% under setting [3]; 8.9% under setting [4]; 16.7% under setting [5]; 12.5% under setting [6]. Moreover, the percent labeling runs as follows: under setting [7], 47.8%; under setting [8], 32.6%; under setting [9], 10.3%; under setting [10], 12.2%; under setting [11], 11%; under setting [12], 17.9%.
For the compound `Cc1c(-c2ccc(Cl)cc2)n[nH]c1C(=O)NCCS`, the percent labeling by setting is: under setting [1], 14.8%; under setting [2], 12.7%; under setting [3], 11%; under setting [4], 8.4%; under setting [5], 15.2%; under setting [6], 8.6%. Moreover, the percent labeling reads like this: under setting [7], 40.3%; under setting [8], 27.9%; under setting [9], 11.3%; under setting [10], 12.2%; under setting [11], 8%; under setting [12], 11.5%.
In turn, `O=C(CCS)NCCn1cc(Br)ccc1=O` displayed a percent labeling under setting [2] of 10.4%; a percent labeling under setting [3] of 32.2%; a percent labeling under setting [4] of 37.1%; a percent labeling under setting [5] of 27.9%; a percent labeling under setting [6] of 40.6%; a percent labeling under setting [7] of 20.7%. The percent labeling is 15.2% under setting [9], 35.7% under setting [10], 38.4% under setting [11] and 46.4% under setting [12].
In the case of `CCOC(=O)C(NC(=O)CCS)c1c(C)nn(Cc2ccccc2)c1C` (stereo not drawn), the percent labeling reads like this: under setting [2], 9.1%; under setting [3], 25.2%; under setting [4], 29.4%; under setting [5], 19.8%; under setting [6], 31.8%; under setting [7], 26.4%. Further, the percent labeling runs as follows: under setting [9], 17.1%; under setting [10], 30.2%; under setting [11], 23.7%; under setting [12], 53.7%.
Consider `O=C(CCS)NCC(=O)Nc1nccs1`, for which the percent labeling reads like this: under setting [2], 12.2%; under setting [3], 26.6%; under setting [4], 38.6%; under setting [5], 34.3%; under setting [6], 30.6%; under setting [7], 23.5%. Further, the percent labeling reads like this: under setting [9], 36.2%; under setting [10], 35.7%; under setting [11], 30.4%; under setting [12], 45.6%.
As for `CC(O)(Cn1ccc2sccc2c1=O)C(=O)NCCS` (stereo not drawn), the percent labeling is, setting by setting: under setting [1], 41.6%; under setting [2], 20.7%; under setting [3], 36.3%; under setting [4], 33.8%; under setting [5], 32.6%; under setting [6], 40.8%. Further, the percent labeling is, setting by setting: under setting [7], 28.1%; under setting [8], 41.5%; under setting [9], 25.8%; under setting [10], 37.1%; under setting [11], 33%; under setting [12], 48.9%.
As for `CC1(C)CCC(C(=O)NCCS)C(c2ccccc2)C1` (stereo not drawn), the percent labeling under setting [1] amounted to 37.3%; the percent labeling under setting [2] turned out to be 9.8%; the percent labeling under setting [3] turned out to be 14.9%; the percent labeling under setting [4] turned out to be 8.9%; the percent labeling under setting [5] turned out to be 21.4%; the percent labeling under setting [6] was determined as 20.1%. In addition, the percent labeling stood at 36.2% under setting [7]; 23% under setting [8]; 18.9% under setting [9]; 14.8% under setting [10]; 12.9% under setting [11]; 25% under setting [12].
Regarding `O=C(NCCS)[C@@H]1OCCO[C@@H]1c1ccccc1`, the percent labeling reads like this: under setting [1], 40%; under setting [2], 16.2%; under setting [3], 35%; under setting [4], 21.1%; under setting [5], 43.8%; under setting [6], 31.2%. Also, the percent labeling runs as follows: under setting [7], 30.8%; under setting [8], 34.8%; under setting [9], 23.6%; under setting [10], 32.8%; under setting [11], 33.2%; under setting [12], 52.5%.
As for `Cc1ccc2ncc(NC(=O)CCS)cc2c1`, the percent labeling stood at 13.4% under setting [2]; 20.4% under setting [3]; 25.3% under setting [4]; 11.2% under setting [5]; 11.8% under setting [6]; 65.5% under setting [7]. Besides, the percent labeling is, setting by setting: under setting [9], 9.5%; under setting [10], 16.8%; under setting [11], 16.7%; under setting [12], 34.9%.
For the compound `O=C(CCS)NCC1(c2cccc(C(F)(F)F)c2)CCC1`, the percent labeling reads like this: under setting [2], 12.1%; under setting [3], 30%; under setting [4], 22.2%; under setting [5], 16.7%; under setting [6], 21.9%; under setting [7], 36.2%. Moreover, the percent labeling worked out at 10.1% under setting [9], 19.4% under setting [10], 16.3% under setting [11] and 36.5% under setting [12].
Regarding `O=C(CC1CCN(CC(F)F)CC1)NCCS`, the percent labeling under setting [1] stood at 20.6%; the percent labeling under setting [2] worked out at 11.1%; the percent labeling under setting [3] came out at 30.6%; the percent labeling under setting [4] was determined as 20.1%; the percent labeling under setting [5] was determined as 30.2%; the percent labeling under setting [6] came to 28.3%. Moreover, the percent labeling is, setting by setting: under setting [7], 10.8%; under setting [8], 33.1%; under setting [9], 17.7%; under setting [10], 27%; under setting [11], 28.1%; under setting [12], 38.7%.
As for `O=C(CCS)Nc1ccc(C(=O)O)cc1O`, the percent labeling runs as follows: under setting [1], 21%; under setting [2], 14%; under setting [3], 29%; under setting [4], 22%; under setting [5], 42.8%; under setting [6], 17.1%. Besides, the percent labeling by setting is: under setting [7], 15.4%; under setting [8], 40%; under setting [9], 36.2%; under setting [10], 33.7%; under setting [11], 39.7%; under setting [12], 34.9%.

The values above are taken from PubChem BioAssay AID2202238 (Ras Initiative Chemistry Research Team, Frederick National …, 2025).
